Assay results taken from paper PMC4336329 (PLoS ONE, 2015).
Among all 310,000 compounds or so, about 14,000 (4.5%) showed an effect of 50% or more. Effects have a minus sign here. The list shows a part of the results.

biological target: human ether-à-go-go-related gene (hERG) potassium channel (human, UniProt Q12809); experiment: primary screen, population patch clamp on CHO cells stably expressing hERG
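Also: peak tail current of the secondary pulse compared with the same well before compound.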

Sequence of human ether-à-go-go-related gene (hERG) potassium channel (Q12809 whole entry, looked up): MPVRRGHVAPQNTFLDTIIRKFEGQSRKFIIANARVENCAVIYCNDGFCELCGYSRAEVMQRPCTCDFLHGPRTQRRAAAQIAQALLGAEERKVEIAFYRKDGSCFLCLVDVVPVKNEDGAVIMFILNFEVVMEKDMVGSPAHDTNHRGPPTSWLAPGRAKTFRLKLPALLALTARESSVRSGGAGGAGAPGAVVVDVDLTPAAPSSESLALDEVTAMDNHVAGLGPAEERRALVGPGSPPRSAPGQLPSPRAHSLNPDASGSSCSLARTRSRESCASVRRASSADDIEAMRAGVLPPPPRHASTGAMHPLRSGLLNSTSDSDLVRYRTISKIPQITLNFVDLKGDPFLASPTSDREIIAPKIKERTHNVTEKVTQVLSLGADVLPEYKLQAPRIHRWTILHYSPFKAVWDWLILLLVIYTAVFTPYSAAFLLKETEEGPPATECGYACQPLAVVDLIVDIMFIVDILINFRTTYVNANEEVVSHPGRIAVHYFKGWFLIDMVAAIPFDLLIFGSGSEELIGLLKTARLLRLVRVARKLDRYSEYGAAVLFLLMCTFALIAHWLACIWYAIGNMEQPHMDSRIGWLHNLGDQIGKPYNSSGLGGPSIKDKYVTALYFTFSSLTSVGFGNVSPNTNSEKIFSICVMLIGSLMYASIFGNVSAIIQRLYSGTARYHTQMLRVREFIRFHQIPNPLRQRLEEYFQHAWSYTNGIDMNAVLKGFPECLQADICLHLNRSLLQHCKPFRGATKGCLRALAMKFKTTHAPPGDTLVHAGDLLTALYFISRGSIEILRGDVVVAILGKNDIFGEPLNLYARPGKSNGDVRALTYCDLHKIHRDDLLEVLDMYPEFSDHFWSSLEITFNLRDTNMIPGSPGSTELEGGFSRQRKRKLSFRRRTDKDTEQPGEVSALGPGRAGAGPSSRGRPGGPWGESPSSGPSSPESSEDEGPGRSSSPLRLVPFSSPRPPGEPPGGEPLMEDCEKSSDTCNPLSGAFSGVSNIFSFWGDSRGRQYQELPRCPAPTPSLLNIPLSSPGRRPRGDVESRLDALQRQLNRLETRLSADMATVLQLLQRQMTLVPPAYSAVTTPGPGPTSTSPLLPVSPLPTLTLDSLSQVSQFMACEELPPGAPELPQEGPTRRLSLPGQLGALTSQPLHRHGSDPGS

In order of falling “hERG current change (%, negative = inhibition) at 10uM” value:
1. NC(=O)Cn1ccc(O)c(Cc2ccc(Cl)cc2Cl)c1=O  19%
2. Cn1c(CNC(=O)OC(C)(C)C)n[nH]c1=S  15.2%
3. Fc1ccccc1-c1csc(-c2cccnc2)n1  14.4%
4. COc1ccccc1NC(=O)Cn1c(O)c(N=NC(=O)c2ccccc2O)c2ccccc21  14.2%
5. O=C(Cn1cc(C(F)(F)F)ccc1=O)NCC1CCCO1 (stereo not shown)  12.1%
6. O=C(NCCN1CCOCC1)C1CCN(S(=O)(=O)N2CCCCC2)CC1  11.1%
7. Cc1cc(C)c2[nH]c(=O)c(=O)[nH]c2c1  9.04%
8. CCOC(=O)c1sc(S(C)(=O)=O)c2c1CCc1conc1-2  8.59%
9. CC(Sc1nnc(CC(=O)Nc2ccccc2F)n1C)C(=O)Nc1nccs1 (stereo not shown)  8.41%
10. CCCS(=O)(=O)N1CCCC(C(=O)NCCc2cccc(C)c2)C1 (stereo not shown)  7.6%
11. CCOC(=O)c1c(C)oc2c1c(C(c1ccncc1)N1CCOCC1)c(O)c1ccccc12 (stereo not shown)  6.38%
12. CC1CCCCC1NC(=O)C1CCN(S(=O)(=O)c2ccc(-n3cnnn3)cc2)CC1 (stereo not shown)  5.95%
13. O=C(CCc1ccccc1)NNC(=O)c1ccccc1C(=O)O  4.34%
14. Cc1ccc2[nH]c3c(c2c1)SC(C)(C)CC3=O  3.75%
15. Cc1nn(CC(=O)N/N=C/c2cccs2)c(C)c1[N+](=O)[O-]  2.74%
16. COc1ccc(-n2nnc3c(=O)n(CC(=O)NCC4CCCO4)cnc32)cc1 (stereo not shown)  2.35%
17. CCOC(=O)c1sc(NC(=O)CN(CC(C)C)CC(C)C)c(C(=O)OCC)c1C  0.222%
18. O=C(Nc1cccc(Oc2ccc(C(=O)O)c(C(=O)O)c2)c1)c1ccc(-c2ccccc2)cc1  -0.459%
19. COc1ccccc1-n1c(SCC(=O)O)nnc1-c1ccc(S(=O)(=O)N2CCCCC2)cc1  -3.46%
20. CC(C)C(=O)C1=Cc2cccc([N+](=O)[O-])c2OC1N1CCOCC1 (stereo not shown)  -3.62%
21. O=C(OC(C(=O)NCc1cccs1)c1ccc(F)cc1)c1ccco1 (stereo not shown)  -3.68%
22. Cc1c(-n2c(=O)n(Cc3ccccc3)c(=O)c3[nH]cnc32)cccc1S(C)=O (stereo not shown)  -4.2%
23. C=CCNC(=O)C(=O)Nc1cc2c3c(c1)CCC(=O)N3CCC2  -5.86%
24. Cc1ccc(S(=O)(=O)N2CCN(C(=O)c3ccc(S(=O)(=O)N4CCCC4)cc3)CC2)cc1  -6.64%
25. COc1cc(-c2cc(C(=O)NCCc3ccc(S(N)(=O)=O)cc3)c3ccccc3n2)cc(OC)c1OC  -10.3%
26. COc1ccc(OC)c(C(O)c2coc3ccc(O)c(CN4CCOCC4)c23)c1 (stereo not shown)  -11.4%
27. C/C(=N/NC(=O)c1ccc(Br)o1)c1ccc(C)o1  -13.8%
28. O=C(COc1ccc(Cl)cc1)NCc1ccncc1  -14%
29. Cc1ccc(C(=O)NCc2ccco2)cc1S(=O)(=O)N1CCCCC1  -18.6%
30. O=C(NCc1cccnc1)C(=O)Nc1ccc([N+](=O)[O-])cc1  -21.2%
31. CCN(CC)S(=O)(=O)c1ccc(N2CCOCC2)c(NC(=O)COc2ccc(C#N)cc2)c1  -21.3%
32. O=S(=O)(c1ccc(Cl)cc1)N1CCCC1c1nc2ccccc2s1 (stereo not shown)  -21.4%
33. O=C(NCCN1CCCCC1)Nc1ccccc1  -23.2%
34. Cc1ccc(CCNC(=O)CS(=O)Cc2nc(-c3ccccc3Cl)oc2C)cc1 (stereo not shown)  -26.1%
35. CCN(CC)C(=O)CSc1nnc([C@H](Cc2c[nH]c3ccccc23)NC(=O)OC(C)(C)C)o1  -26.4%
36. CCCN1CCN(CCCNC(=O)c2cc3c(=O)oc4ccc(C)cc4c3s2)CC1  -27.4%
37. O=C(Cc1ccc(F)cc1)OCC(=O)N1CCN(S(=O)(=O)c2ccc(Cl)cc2)CC1  -29.9%
38. OC(CNCc1ccc(F)cc1)(c1ccc(F)cc1)c1ccc(F)cc1  -33.7%
39. Cl.O=C(c1ccc(Cl)c(S(=O)(=O)N2CCCCCC2)c1)N1CCN(CCO)CC1  -34.4%
40. CC1(C)Cc2c(cnn2-c2ccc(F)cc2)C(NC(=O)c2cnccn2)C1 (stereo not shown)  -37.6%
41. CC(C(=O)Nc1cccc(S(=O)(=O)N2CCOCC2)c1)N1CCN(c2ccc(F)cc2)CC1 (stereo not shown)  -40.3%
42. Nc1c(-c2cccc(Cl)c2)cnn1-c1cccc([N+](=O)[O-])c1  -41.4%
43. O=C(NCC(c1cccnc1)N1CCN(c2ccc(F)cc2)CC1)OCc1ccccc1 (stereo not shown)  -56.8%
